Data from the RNAGym collection of RNA variant scans (doi:10.7554/elife.90254).
The source gives no read counts; variants with many changes may rest on few reads.

B1: OR4K15 (parent)
chain: GUUAACGGUCAUAGGCCAUGGAAACUAGGAGCACCAUUUCGCUGCCAGUGAAGAAAUGAACAAAGAAAAUCUGGGCCAGGCAGGCAUCAAAAGAAAUAGUCUUGCGCUCAACCAGAAAGUCUGUAAUCAUUUUAAGGGUA

Variants of: B1
Assay: self-cleavage, relative activity (ratio to wild type); higher = more cleavage; in vitro, sequencing; the parent is a self-cleaving ribozyme

Variant	self-cleavage
GUUAACGGUCAUAGGCCGUGGAAACUAGGAGCACCAUUUCGCUGCCAGUGAAGAAAUGAACAAGGAAAAUCUGGGCCAGGCAGGCAUCAAAAGAAAUAGUCUUGCGCCCAACCAGAAAGUCUGUAAUCAUUUUAGGGGUA [A18G A64G U108C A135G]	0.02
GUUAACGGUCAUAGGCCAUGGAAGCUAGGAGCACCAUUUCGCUGCCAGUGGAGAAAUGAACAAAGAAAAUCUGGGCCAGGCAGGCAUCAAAAGAAAUAGUCUUGCGCUCAACCUGAAGGUCUGUAAUCAUUUUAAGGGUA [A24G A51G A114U A118G]	0.04
GUUAACGGUCAUAGGCCAUGGAGGCUAGGAGCACCAUUUCGCUGCCAGUGAAGAAAUGAACAGAGAAAAUCUGGGCCAGGCAGGCAUCAAAAGAAAUAGUCUUGCGCUCAACCAGAAAGUCUGUAAUCAUUUUAAGGGUA [A23G A24G A63G]	0.78
GUUAACGGUCAUAGGCCAUGGAAACUAGGAGCACCAUUUCGCUGCCAGUGAAGAAAUGAACAAAGAAAAUCUGGGCCUGGCAGGCAUCAAAAGGAAUAGUCUUGCGCUCAACCAGAAAGUCUGCAAUCAUUUUAAGGGUA [A78U A94G U124C]	0.15
GUUAACGGUCAUAGGCCAUGGGAACUAGGAGCACCAAUUCGCUGCCAGUGAAGAGAUGAGCAAAGAAAAUCUGGGCCAGGCAGGCAUCAAAAGAAAUAGUCUUGCGCUCAACCAGAAAGUCUGUAAUCAUUUUGAGGGUA [A22G U37A A55G A60G A134G]	0.8
GCUGGCGGUCAUAGGCCAUGGAAAUUAGAAGCACCAUUUCGCUGCCAGUGAAGAAAUGAACAAAGAAAACCUGGGCCAGGCAGGCAUCAAAAGAAAUAGUCUUGCGCUCAACCAGAAAGACUGUAAUCAUUUUAUGGGUA [U2C A4G A5G C25U G29A U70C U120A A135U]	0.63
GUUAACGGUCAUAGGCCAUGGAAACUAGGAGCACCAUUCCGCUGCCAGUGAAGAGAUGAACAAAGAAGAUCUGGGCCGGGCAGGCAUCAAAAGAAAUAGUCUUGCGCUCAACCGGAAAGUCUGUAAUCAUUUUAAGGGUA [U39C A55G A68G A78G A114G]	0.05
GUUAACGGUCAUAGGCCAUGGAAACUAGGAGCACCAUUUCGCUGCCAGUGAAGAAAUGAACAAAGAGAAUCUGGGCCAGGCAGGCAUCUAAAGAAAUAGUCUUGCGCUCGACCAGAAAGUCUGUAAUCAUUUUAAGGGUA [A67G A89U A110G]	0.12
GUUAACGGUCAUAGGCCAGGGAGACUAGGAGCACCAUUUCGCUGCCAGUGAAGAAAUGAACAAAGAAAAUCUGGGCCAGGCAGGCAUCAAAAGAAAUAGCCUUGCGCUCAACCAGAAAGUCUGUAAUCAUUUCAAGGGUA [U19G A23G U100C U133C]	1.09
GUUAACGGCCAUAGGCCAUGGAAACUAGGAGCACCAUUUCGCUGCCAGUGAAGAAAUGAACAAAGAAAAUCUGGGCCGGGGAGGCAUCAGAAGAAAUAGUCUUGCGCUCAACCAGAAAGUCUGUAAUCAUUUUAAGGGUA [U9C A78G C81G A90G]	0.17
GUUAGCGGUCAUAGGCCAUGGAAACUAGGAGCACCAUUUCGCUGCCAGUGAAGAAAUGAACAAAGAAAAUCUGGGCCAGGCAGGCAUCAAAAGAAAUAGUCUUGCGCUCAACCAGUAAGUCUGUACUCAUUUUAAGGGUA [A5G A116U A126C]	0.03
GUUAACGGUCAUAGGCCGUGGAAACUAGGAGCACCAUUUCACUGCCAGUGAAGAAAUGAACAAGGAAAAUCUGGGCCAGGCAGGCAUCAAAAGAAAUAGUCUUGCGCUCAACCAGAAAGUCUGUAAUCAUUUUAAGGGUA [A18G G41A A64G]	0.98
GUUAACGGUCAUAGGCCAUGGGAACUAGGAGCACCAUUUCGCUGCCAGUGAAGAAAUGAACAAAGAAAAUCUGGGCCAGGCAGGCAUCAGAAGAAAUAGUCUUGCGCUCAACCAGAAAGUCUGUAAUCAUCUUAAGGGUA [A22G A90G U131C]	0.65
GUUAACGGUCAUAGGCCAUGGAAACUAGGAGCACCAUUUCGCUGCCAGUGAAGAAAUGAACAAAGAAAAUCUGGGCCAGGCAGGCAUCAAAAGAAAUAGACUUACGCUCAACCAGUAAGUCUGUAAUCAUUUUAAGGGUA [U100A G104A A116U]	0
GUUAACGGUCAUUGGCCAUGGAAACUAGGAGCACCAUUUCGCUGCCAGUGAGGAAAUGAACAAAGAAAAUCUGGGCCAGGCAGGCAUCAAAAGAAAUAGUCUUGCGCUCAACCAGAAGGUCUGUAAUCAUUUUAAGGGUA [A13U A52G A118G]	0.85
GUUGACGGUCAUAGGCCAUGGAAACUAGGAGCACCAUUUCGCUGCCAGUGAAGAAAUGAACAAAGAAAAUCUGGGCCAGGCAGGCAUCAAAAGAAAUAGUCUUGCGCCCAACCAGAAAGUCUGUAAUCAUUUUAAGGGCA [A4G U108C U139C]	0.05
GAUAACGGUCAUAGGCCAUGGAAACUAGGAGCACCAUUUCGCUGCCAGUGAAGAAAUGAACAAAGAAAAUCUGGGCCAGGCAGGCAUCAAAAGAAGUAGUCCUGCGCUCAACCAGAAAGUCUGUAAUCAUUUUAAGGGUA [U2A A96G U102C]	1.51
GUUAACGGUCAUAGGCCGUGGGAACUAGGAGCACCAUUUCGCUGCCAGUGAAGAAAUGGACAAAGAAAAUCUGGGCCAGGCAGGCAUCAGAAGAAAUAGUCUUGCGCUCAACCAGAAAGUCUGUAAUCAUUUUAAGGGUA [A18G A22G A59G A90G]	1.04
GUUAACGGUCAUAGGCCAUGGAAACUAGGAGCACCAUUUCGCUGCCAGUGGGGAAAUGAACAAAGUAAAUCUGGGCCAGGCAGGCAUCAAAAGAAAUAGUCUUGCGCUCAACCAGAAAGUCUGUAAUCAUUUUAAGGGUA [A51G A52G A66U]	1.45
GUUAACGGUCAUAGGCCAUGGAAACUAGGAGCACCAUUUCGCUGCCAGAGAAGAAAUGAACAAAGAAAAUCUGGGCCAGGCAGGCAUCAAAGGAAAUAGUCUCGCGCUCAACCAGAAAGUCUGUAAUCAUUUUAAGGGUA [U49A A92G U103C]	0.79
